Measured values: publication PMC6919601, “Identification of Plasmodium dipeptidyl aminopeptidase allosteric inhibitors by high throughput screening” (PLoS ONE, 2019)
About 230 (0.21%) of roughly 110,000 compounds showed an effect of 50% or more. The list shows a part of the results.

Target: DPAP1 (Plasmodium falciparum, UniProt Q8IIJ9)
Assay: primary screen, percent inhibition; read by cleavage of a fluorogenic dipeptide substrate; higher = more effect of the substance
Set-up: species or system P. falciparum D10 trophozoite lysates; single well
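Note: 30 min substrate incubation versus DMSO and 10 µM JCP410 controls.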

DPAP1, sequence (Q8IIJ9 whole entry, looked up): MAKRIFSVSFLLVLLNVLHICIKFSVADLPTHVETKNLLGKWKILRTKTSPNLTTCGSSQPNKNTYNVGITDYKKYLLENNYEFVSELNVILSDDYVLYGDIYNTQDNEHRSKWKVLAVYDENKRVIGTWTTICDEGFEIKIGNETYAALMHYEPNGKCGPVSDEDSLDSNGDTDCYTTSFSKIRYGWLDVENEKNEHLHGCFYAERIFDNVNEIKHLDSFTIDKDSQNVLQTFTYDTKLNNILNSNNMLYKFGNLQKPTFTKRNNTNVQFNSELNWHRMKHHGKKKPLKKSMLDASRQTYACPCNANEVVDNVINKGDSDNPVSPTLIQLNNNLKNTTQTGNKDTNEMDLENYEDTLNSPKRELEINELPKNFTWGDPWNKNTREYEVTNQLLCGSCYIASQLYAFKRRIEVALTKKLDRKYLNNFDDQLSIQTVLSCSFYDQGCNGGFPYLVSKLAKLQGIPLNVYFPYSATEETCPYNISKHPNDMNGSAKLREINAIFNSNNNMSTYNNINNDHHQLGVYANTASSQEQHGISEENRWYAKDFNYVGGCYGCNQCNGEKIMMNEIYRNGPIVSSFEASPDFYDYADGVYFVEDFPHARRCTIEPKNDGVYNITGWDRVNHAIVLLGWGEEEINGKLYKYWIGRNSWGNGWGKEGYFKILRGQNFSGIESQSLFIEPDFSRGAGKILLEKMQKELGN

| SMILES | % Inhibition @ 10 uM |
| --- | --- |
| Cc1nc(S)c2c(n1)-c1ccccc1CC21CCCCC1 | -2.64% |
| CC1NC2(C(=O)N(Cc3ccccc3Cl)c3ccccc32)C2C(=O)N(Cc3ccccc3)C(=O)C12 (stereo not drawn) | -5.27% |
| CN1CCN(CCCNC(=O)CCC(=O)N2CC=C(c3c[nH]c4ccccc34)CC2)CC1 | -7.26% |
| O=[N+]([O-])c1ccccc1CN1CCC(O)CC1 | 3.16% |
| CC(C)(C)c1cc(/C=N/O)cc(C(C)(C)C)c1O | -1.45% |
| CCN(C(=O)c1ccc(-c2ccccc2)cc1)c1ccccc1 | 3.1% |
| Cc1ccc(CSCCNC(=O)CSc2ccccc2)cc1 | -2.76% |
| O=C(Nc1ccccc1O)c1nc[nH]n1 | 5.73% |
| O=C(O)CC(NC(=O)Cc1ccc(Cl)cc1)c1ccc(F)cc1 (stereo not drawn) | -1.47% |
| Cc1ccc(NC(=O)c2nc(-c3ccc(Cl)cc3)n3c2CCCCC3)nc1 | 4.39% |
| C#CCN1C(=O)C(O)(CC(=O)c2ccc3ccccc3c2)c2ccccc21 (stereo not drawn) | -20.7% |
| CS(=O)(=O)n1nc(-c2cccnc2)nc1NCc1ccccc1 | 0.558% |
| CCOC(=O)N1CCN(c2ncnc3c2c(-c2ccccc2)cn3-c2cccc(Cl)c2)CC1 | 7.48% |
| COc1nc2ccccc2nc1CCC(=O)O | -1.72% |
| COCc1ccc2oc(C(=O)O)cc2c1 | 5.31% |
| O=C(c1cc(S(=O)(=O)N2CCOCC2)cs1)N1CCCC1 | 1.54% |
| N#CC1=C(N)Oc2[nH]nc(-c3cccs3)c2C1c1ccccc1F (stereo not drawn) | 5.89% |
| OCCN(CCO)CC1CC2C=CC1C2 (stereo not drawn) | 1.62% |
| CCCn1c(CCNC(=O)c2ccccc2)nc2ccccc21 | 1.5% |
| Cc1ccc(-c2nn(CCC(=O)NC(C)C)c(=O)c3ccccc23)cc1 | 2.25% |
| Cc1nn(-c2ccccc2)c(-n2cccc2)c1C(=O)NCCCN1CCOCC1 | 4.95% |
| CCCn1c(=O)c2sccc2n2c(CCCC(=O)N3CC(C)CC(C)C3)nnc12 (stereo not drawn) | -2.15% |
| Cc1cccc(C(O)(CCN2CCCCC2)c2ccccc2)c1 (stereo not drawn) | -1.82% |
| CCC(C)Sc1nc2c(c(=O)[nH]c(=O)n2C)n1Cc1ccc(Cl)cc1 (stereo not drawn) | 0.851% |
| Cc1cc(C)nc(NC(=O)c2ccccc2Cl)n1 | 3.29% |
| O=C(CC(c1ccc(F)cc1)N1Cc2ccccc2C1=O)NCc1ccc(CN2CCOCC2)o1 (stereo not drawn) | -4.03% |

| SMILES | % Inhibition @ 10 uM |
| --- | --- |
| CN1CCc2nc(S)c(C#N)c(-c3ccccc3)c2C1 | 2.45% |
| COCCN1C(=O)c2ccccc2C(C(=O)NCc2ccco2)C1c1cccs1 (stereo not drawn) | 2.19% |
| COc1ccc(OC)c(-n2c(CCC(=O)O)ccc2-c2ccccc2)c1 | 0.291% |
| COc1ccccc1OCc1ccc(C(=O)NCCN(C)C)o1 | -5% |
| COC(=O)c1nc2n(n1)C(c1cc(OC)c(OC)c(OC)c1)C=C(c1cccc(OC)c1)N2 (stereo not drawn) | -1.62% |
| Cc1nn(C)c2c1c(-c1ccccc1)cc(=O)n2C(C)C(=O)NCc1ccccc1 (stereo not drawn) | -0.835% |
| Oc1ccc(CN2CCSCC2)cc1 | -2.92% |
| CCOC(=O)c1cc2c(=O)n3ccccc3nc2n(C(C)C)/c1=N/C(=O)c1ccncc1 | -5.57% |
| CCCCNC(=O)CN(c1ccc(Cl)cc1Cl)S(=O)(=O)c1ccccc1 | 1.39% |
| COc1ccccc1-c1nn2c(Cn3cnc4ccccc43)nnc2s1 | 7.5% |
| O=C(CSc1c2c(nc3ccccc13)CCCC2)N1CCCC1 | -3.23% |
| Cc1ccc(CSc2nc3cccnc3n2CC(=O)N(C)C2CCCCC2)cc1 | 0.693% |
| CCCNc1cc(-c2ccccc2)ncn1 | -4.49% |
| Cc1cc(C)c(C)c(S(=O)(=O)NCC(=O)N2CCCC2)c1C | -3.37% |
| Cc1ccc2nc(Cl)c3cc(C(=O)NC(C)C)sc3c2c1 | -1.7% |
| O=C(O)c1ccccc1C(=O)OCCN1CCOCC1 | -0.357% |
| COC(=O)c1ccc(C2c3c(oc4ccc(F)cc4c3=O)C(=O)N2Cc2ccc3c(c2)OCO3)cc1 (stereo not drawn) | 0.415% |
| CCOc1ccc(-c2cc(C(=O)O)c3c(-c4ccccc4)[nH]nc3n2)cc1OC | 4.59% |
| COc1ccc(C2C(C(=O)c3cccs3)=C(O)C(=O)N2CCCN(C)C)c(OC)c1 (stereo not drawn) | 0.487% |
| O=C(Nc1ccccc1C(=O)N1CCCC1)c1cccc(F)c1 | -3.5% |
| Cc1ccc(CNC(=O)CSc2nnc(C)c3c(C)n(-c4ccccc4)nc23)o1 | -4.18% |
| CC(=O)N1CCN(C(=O)N[C@@H](CC(C)C)C(=O)NCC#N)CC1 | 2.87% |
| COc1cccc(/C=C2/SC(=O)N(CC(=O)N3CCOCC3)C2=O)c1OC | -8.36% |
| CS(=O)(=O)N(CC(=O)Nc1ccc(Oc2ccccc2)cc1)c1ccccc1F | -5.06% |
| Cc1c(CNCC(C)c2ccccc2)c(C(=O)O)c(C)n1Cc1ccc(F)cc1Cl (stereo not drawn) | -5.49% |
| Oc1ccc(-c2csc(Nc3cccnc3)n2)cc1 | -3.5% |

| SMILES | % Inhibition @ 10 uM |
| --- | --- |
| OCCn1c(-c2ccccc2)cn2c3ccccc3nc12 | 1.13% |
| CCOC(=O)N1CCN(C(=O)C2c3ccccc3C(=O)N(CC(C)C)C2c2cccs2)CC1 (stereo not drawn) | 1.69% |
| CCn1c2ccccc2c2cc(CN3CCN(c4ccccc4)CC3)ccc21 | -3.77% |
| O=C(/C(=C(\O)c1ccccc1)[n+]1ccc2ccccc2c1)c1ccccc1 | 0.658% |
| CC1CCN(S(=O)(=O)c2cc(C(=O)O)ccc2Cl)CC1 | 0.177% |
| CC(=O)N(CN1C(=O)C2CC=CCC2C1=O)c1cccc(Cl)c1 (stereo not drawn) | 0.751% |
| CCN1CCC(N(Cc2cccc(OC)c2)C(=O)NC23CC4CC(CC(C4)C2)C3)CC1 | 3.7% |
| COc1cccc(/C=C2\CCCC3=C2OC(N)=C(C#N)C3c2cccc(OC)c2)c1 (stereo not drawn) | -4.68% |
| O=C(CN1C(=O)c2ccccc2C1=O)Nc1ccc(Br)cc1 | 5.04% |
| COc1cccc(NC(=O)c2ccc(Br)cc2)c1 | -3.26% |
| CC(CNC(=O)c1ccc(Cl)cc1)NC(=O)c1ccc(Cl)cc1 (stereo not drawn) | -3.21% |
| CCC(C)NC(=O)c1cn(CC)c(=O)c2cc(OC)c(OC)cc12 (stereo not drawn) | -2.49% |
| Cc1ccc(-c2c(C(=O)NCC3COc4ccccc4O3)oc(=O)c3ccccc23)cc1 (stereo not drawn) | 5.1% |
| CCCNc1nc(OC)nc(OC)n1 | -4.05% |
| Cc1ccc(C(=O)C2=C(O)C(=O)N(c3nccs3)C2c2ccc(C)cc2)cc1 (stereo not drawn) | 1.61% |
| COC(=O)c1ccc(C(=O)Nc2nc3ccc(OC)cc3s2)cc1 | 5.98% |
| CC12CCC(C/C1=N\OC(=O)c1ccc(F)cc1)C2(C)C (stereo not drawn) | -1.47% |
| Cc1cccc(NC(=O)COc2ccc(C)cc2C)c1 | -2.32% |
| COC(=O)c1c(NC(=O)/C=C/c2ccc(OC)c(Br)c2)sc2c1CCCC2 | 17.4% |
| COC(=O)c1ccccc1NC(=O)c1ccccc1Br | -3.04% |
| COC(=O)CCS(=O)(=O)c1ccc(C)c(C)c1 | -1.77% |
| CCSc1nnc(NC(=O)Cc2csc(C)n2)s1 | 2.04% |
| Cc1cc(C)c(S(=O)(=O)NC2CCCCC2)cc1S(=O)(=O)NC1CCCCC1 | 10.6% |
| Cc1ccc(N2C(=O)CSC23C(=O)Nc2ccccc23)cc1 (stereo not drawn) | -3.77% |
| CCOc1cc(C2C(C#N)=C(N)Oc3[nH]nc(C(C)(C)C)c32)ccc1O (stereo not drawn) | -4.28% |
| CCOc1ccc(S(=O)(=O)/N=C(/Nc2ccccn2)c2ccccc2)cc1 | -1.87% |

| SMILES | % Inhibition @ 10 uM |
| --- | --- |
| Cc1cc(NC(=O)c2sc3nc(N)c(C#N)cc3c2N)ccc1Br | 7.96% |
| CCOC(=O)c1c(C)[nH]c(C)c1S(=O)(=O)N1CCCC(C)C1 (stereo not drawn) | 0.708% |
| CC(C(=O)Nc1cccnc1)C1Sc2ccccc2NC1=O (stereo not drawn) | 0.218% |
| O=C1NC(c2ccccc2F)C(C(=O)c2ccc(Cl)cc2)=C1O (stereo not drawn) | 1.86% |
| COCCCn1c(CCC(=O)O)ccc1-c1cccs1 | -1.15% |
| O=C(CCS(=O)(=O)c1ccc(Br)s1)NC1CCCc2ccccc21 (stereo not drawn) | -4.79% |
| Cc1ccc(C(=O)N2CCN(C(=O)CSc3nnnn3-c3ccccc3)C2)cc1 | -5.38% |
| COc1ccc2c(CNCCCc3ccccc3)c(C(=O)O)n(Cc3ccccc3F)c2c1 | -0.517% |
| O=C(O)c1ccccc1C(=O)NCCCO | 1.7% |
| COc1ccc(C=O)c(OC)c1 | 1.39% |
| N#Cc1c(NC(=O)C2CC2c2ccccc2)sc2c1CCC2 (stereo not drawn) | 2.36% |
| CC1=C(C(=O)OCCOc2ccccc2)C(c2ccccc2Cl)NC(=O)N1C (stereo not drawn) | 2.45% |
| O=C(CSC1CC(=O)N(c2ccccc2)C1=O)Nc1ccc(Cl)cc1 (stereo not drawn) | -0.988% |
| Cc1ccc(C)c(OCC(=O)NC(C)(C)C)c1 | -3.23% |
| O=C1CCC(C(=O)N2CCN(Cc3ccccc3)CC2)N1 (stereo not drawn) | -1.59% |
| N#CC1=C(N)Oc2nc(SCc3ccc(Cl)cc3)nc(N)c2C1c1cccnc1 (stereo not drawn) | -0.222% |
| O=[N+]([O-])c1ccc(Cl)c(CN2CCCCCC2)c1 | -3.79% |
| NC(NC(=O)c1ccccc1)=C1C(=O)NC(=O)NC1=O | 1.76% |
| Cc1ccc(CCNC(=O)c2cc(-c3cccnc3)nc3ccccc23)cc1 | -3.58% |
| N#CC1=C(N)Oc2[nH]nc(-c3ccc(-c4ccccc4)cc3)c2C1c1ccccn1 (stereo not drawn) | 1.57% |
| Cc1ccc(C(=O)Nc2cccc(NC(=O)c3ccc(C)o3)c2)o1 | -6.05% |
| Cc1cc(NC(=O)C2=CC(c3cccs3)=NS(=O)(=O)N2C)n(-c2ccccc2)n1 | 0.444% |
| CCCCC(=O)NC1(C(F)(F)F)C(=O)N(CC(C)C)C2=C1C(=O)CC(C)(C)C2 (stereo not drawn) | 2.38% |
| COC(=O)C1=C(C)N=C(C)/C(=C(/O)OC)C1C1CC=CCC1 (stereo not drawn) | -8.19% |
